# Results reported in the supplement of paper PMC4166925.
# ± gives the standard deviation of the averaged measurements. Whole data set: some 33,000 sequences, median “E-score (dimensionless, -0.5 to 0.5)” near -0.049, cut for the highest 2% near 0.37. Some of the results follow.
# Tested on: T1, PmTbr T-box DNA-binding domain (GST fusion)
# T1 sequence: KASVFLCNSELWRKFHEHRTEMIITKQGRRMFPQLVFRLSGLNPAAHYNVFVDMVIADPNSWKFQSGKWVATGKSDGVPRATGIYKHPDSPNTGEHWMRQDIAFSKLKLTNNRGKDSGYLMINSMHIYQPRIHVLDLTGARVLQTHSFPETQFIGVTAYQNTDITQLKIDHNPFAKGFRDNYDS
# Experiment: PBM E-score of 8-mer (E-score (dimensionless, -0.5 to 0.5)); Tbr is Tbrain of the sea star Patiria miniata (Pm) or the sea urchin Strongylocentrotus purpuratus (Sp); higher = stronger binding preference; most listed sequences are background and not binding sites
# Settings: the construct has about 5 more residues each side
# Summary of the method: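 Universal Agilent oligonucleotide arrays, made double-stranded by primer extension, were incubated with 200 nM GST-fused Tbr T-box DNA-binding domain in PBS (pH 7.5). The protein was expressed in BL21 E. coli at 20 °C and purified by glutathione affinity chromatography. After scanning and quantification, the Universal PBM Analysis Suite assigned an enrichment E-score to each ungapped 8-mer, averaged over duplicate arrays.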
row,Sequence,PBM E-score of 8-mer
1,AGAAACAA,-0.0717 ± 0.076
2,CTTGCAAA,0.148 ± 0.0012
3,GAATTGTA,-0.0474 ± 0.078
4,CCCGCCGA,-0.191 ± 0.034
5,ACATTAAG,-0.125 ± 0.11
6,ACCGGTTA,-0.0129 ± 0.037
7,GGAGGCTA,-0.209 ± 0.016
8,CCCAAGGC,-0.117 ± 0.025
9,GTTGGGTA,-0.23 ± 0.042
10,ATAATCGC,0.0767 ± 0.055
11,CCAAAAAG,-0.0846 ± 0.0049
12,GTGTTATA,0.426 ± 0.013
13,ACCACGGG,0.0879 ± 0.013
14,AATTTTAC,-0.124 ± 0.06
15,GCCCCCCC,-0.189 ± 0.0088
16,AATTAGCT,-0.0843 ± 0.043
17,CTGCGGAA,-0.0961 ± 0.0056
18,AGCGCGAA,0.392 ± 0.014
19,GATATTCA,-0.113 ± 0.047
20,AGGGTTCG,-0.0962 ± 0.01
21,TCCTTGAA,-0.335 ± 0.062
22,ACGGATAT,-0.185 ± 0.038
23,CCAGGTCC,-0.114 ± 0.039
24,TATTGACA,0.318 ± 0.041
25,ACAGCCCT,-0.0731 ± 0.056

row,Sequence,PBM E-score of 8-mer
1,CGACATCG,0.0779 ± 0.0035
2,GTTATCTA,0.0556 ± 0.017
3,CTCTCACC,0.383 ± 0.0077
4,GACCAGCA,-0.175 ± 0.046
5,AACACCGT,0.329 ± 0.0059
6,CCCTCTTA,-0.135 ± 0.056
7,CAACGTAC,-0.0161 ± 0.041
8,AAGGCTTG,-0.18 ± 0.019
9,CCAGCGGA,-0.0366 ± 0.07
10,ACTAAATA,-0.147 ± 0.053
11,CGATAGCG,0.231 ± 0.063
12,ACGCATGC,-0.151 ± 0.051
13,CTATAATA,-0.216 ± 0.025
14,AGGGGTAT,-0.325 ± 0.007
15,CAAGCATA,-0.168 ± 0.041
16,GTCGCGGA,0.0192 ± 0.071
17,AACATAGC,0.114 ± 0.085
18,GCATAGGC,-0.146 ± 0.027
19,CACATCCA,0.2832 ± 0.0021
20,ACGCCGTA,0.0433 ± 0.031
21,CCAAATAC,-0.0702 ± 0.00073
22,ACAACACT,0.37 ± 0.016
23,CTCGGAAA,-0.188 ± 0.0085
24,CTTGCAGA,-0.115 ± 0.051
25,GGATGTTA,-0.00674 ± 0.011

row,Sequence,PBM E-score of 8-mer
1,GTAAAAGA,0.0893 ± 0.015
2,ACCAAAGT,0.013 ± 0.064
3,TTCCTCAA,-0.237 ± 0.044
4,ACAGCTGG,0.0532 ± 0.048
5,AACCAGTG,-0.0282 ± 0.04
6,CGAAGCAG,-0.13 ± 0.046
7,GAAAGCGC,0.108 ± 0.052
8,GAACCTTC,-0.173 ± 0.04
9,CTAATTTA,-0.0858 ± 0.14
10,CCTAGACG,0.0311 ± 0.054
11,CACTGCAG,0.0659 ± 0.042
12,AGATTCGC,0.0914 ± 0.016
13,ATACCACG,-0.0283 ± 0.0036
14,ATGGCGTG,0.166 ± 0.033
15,CGTGTACA,-0.0554 ± 0.17
16,CACTTTAA,0.235 ± 0.065
17,CCGCCGCG,-0.0208 ± 0.05
18,ATCCTTTG,-0.257 ± 0.062
19,ACCTTTTA,0.122 ± 0.12
20,GTATGCAC,-0.00011 ± 0.075
21,CACTTTTC,0.275 ± 0.021
22,GATCGGCC,-0.203 ± 0.0054
23,CCTGGATA,-0.154 ± 0.034
24,ATGCCCGG,-0.155 ± 0.033
25,AAAATCCT,-0.137 ± 0.011

row,Sequence,PBM E-score of 8-mer
1,ACCAGCTC,-0.0667 ± 0.051
2,CGTCAACG,0.237 ± 0.0036
3,ACATCGCG,0.249 ± 0.019
4,TAAGTTAA,-0.0968 ± 0.031
5,CCTGCCGC,0.0701 ± 0.019
6,TCGGTAAA,-0.118 ± 0.0062
7,GATTGTGC,0.122 ± 0.013
8,ACTGACGA,-0.0694 ± 0.068
9,AGATACTC,-0.119 ± 0.09
10,AGTCTCCG,-0.162 ± 0.069
11,GAAAAATA,-0.166 ± 0.078
12,GCTGCCAC,0.191 ± 0.0065
13,AAGGACAT,-0.11 ± 0.029
14,GAGTACTC,-0.0401 ± 0.097
15,GCAGTGTA,-0.139 ± 0.063
16,TGGTGGAA,-0.00937 ± 0.0075
17,AACACTCA,0.323 ± 0.0094
18,AGGAGCCA,-0.0993 ± 0.012
19,ACAGGCCG,-0.0242 ± 0.021
20,CTGTCACA,0.4 ± 0.0052
21,AAAAATTA,0.0479 ± 0.016
22,GAAAGCCA,-0.235 ± 0.023
23,ATGCGTGC,0.0332 ± 0.014
24,GAATGTCC,-0.279 ± 0.0091
25,ATGAAGAC,-0.109 ± 0.044

row,Sequence,PBM E-score of 8-mer
1,AACTTTAA,-0.129 ± 0.17
2,TAGCTGGA,-0.1769 ± 0.00071
3,AAGGATCA,-0.022 ± 0.029
4,ATAAGGCA,-0.0131 ± 0.013
5,CTCGTGGA,-0.209 ± 0.18
6,GAGCGTGA,0.248 ± 0.021
7,GGGAGCTA,-0.182 ± 0.025
8,CGTACGCC,-0.166 ± 0.0083
9,ATGAGTTG,-0.0673 ± 0.11
10,ATGTAGAA,-0.291 ± 0.077
11,CAATCAAG,-0.209 ± 0.1
12,CACAGTTA,0.141 ± 0.032
13,AAATCGCC,0.1971 ± 0.0016
14,CGAAAAGA,-0.277 ± 0.1
15,ACTAGGCG,0.167 ± 0.052
16,CGAATCGA,0.201 ± 0.017
17,TGCAAACA,0.11 ± 0.022
18,ATCCCGCG,-0.042 ± 0.095
19,CGTTGCTC,-0.0637 ± 0.0068
20,GTTGTAGA,0.0094 ± 0.012
21,CGTGTCTC,0.00564 ± 0.025
22,AAGCAGAT,-0.0935 ± 0.026
23,ACGATACC,-0.0725 ± 0.0011
24,CGTACACA,0.0802 ± 0.041
25,TGCGATAA,0.288 ± 0.012

row,Sequence,PBM E-score of 8-mer
1,ATGTCACC,0.385 ± 0.015
2,CACTAACG,0.212 ± 0.02
3,CCTTCCTC,-0.148 ± 0.011
4,CGGTAAAA,-0.172 ± 0.0061
5,GACCTGCC,0.148 ± 0.0062
6,GCGTGACC,0.329 ± 0.038
7,GAATATTC,-0.0776 ± 0.032
8,AAGCCCAA,-0.237 ± 0.015
9,CACAGAGA,-0.0694 ± 0.036
10,CAACCGGA,-0.0889 ± 0.027
11,CAATCTAG,0.0154 ± 0.025
12,AACGTGGC,0.166 ± 0.05
13,ACTCGGGA,-0.142 ± 0.0029
14,CGATCCGC,-0.137 ± 0.12
15,AGTATTAC,-0.302 ± 0.048
16,CCCTCAGG,-0.215 ± 0.048
17,ACTGAAAT,0.209 ± 0.06
18,ATGATGTC,-0.13 ± 0.024
19,AGTTACTG,-0.0814 ± 0.12
20,AGAAATGG,0.00789 ± 0.085
21,CCTGGCTA,0.0268 ± 0.0048
22,CAGGAGTC,-0.113 ± 0.015
23,CACAAGGC,-0.0467 ± 0.053
24,TGAGCTCA,-0.117 ± 0.012
25,AGACTGGA,-0.0672 ± 0.019

row,Sequence,PBM E-score of 8-mer
1,AATGTCCG,-0.16 ± 0.054
2,CACATGTG,0.343 ± 0.026
3,CATCAACA,0.134 ± 0.061
4,AAGCGAAC,-0.0211 ± 0.029
5,ATACGACC,-0.0601 ± 0.011
6,CGCGCTCA,0.13 ± 0.034
7,CTGGGCTA,-0.101 ± 0.052
8,CTATTTCA,-0.0412 ± 0.045
9,AAATCATA,-0.131 ± 0.0072
10,CGCCAGGA,0.116 ± 0.013
11,AGCGACGG,-0.00054 ± 0.023
12,ACGAGCAG,0.0386 ± 0.033
13,ACATTGGC,0.167 ± 0.058
14,ACCGTCGT,0.162 ± 0.045
15,CATCTTCC,0.0383 ± 0.0049
16,CACCGGAC,-0.0947 ± 0.019
17,GGGCGAAC,-0.0669 ± 0.16
18,CGGGCGAA,-0.155 ± 0.051
19,GTCGGTTA,0.057 ± 0.032
20,CGGAGAGA,-0.12 ± 0.012
21,CAGGATGG,-0.144 ± 0.021
22,AGGCGAAA,-0.0128 ± 0.028
